In the supplement of paper PMC11417369:
Some of the results follow.

Each sequence was assayed on PfHDP1 homeodomain (GST-tagged) (assay: gcPBM binding intensity (ln(normalized median fluorescence intensity)); higher = stronger DNA binding).
Outline: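 Plasmodium falciparum DNA-binding domains carrying a GST tag were expressed in E. coli and applied for 1 h, at about 25 μg on average, to an Agilent 4 × 180k array. The array held primer-extended double-stranded 36-bp intergenic genomic probes together with negative controls, and binding took place in 1× PBS with 1% milk, 0.2 mg/ml BSA, 0.5% salmon testes DNA and 0.03% Triton X-100. An Alexa488 anti-GST antibody detected bound protein, and the array was scanned at 488 nm. Binding intensity is taken as the highest Masliner-normalised natural-log median intensity across replicate spots of either probe orientation.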

| Sequence | gcPBM binding intensity (ln) |
| --- | --- |
| TTAATTTGTAAATAATGTACATATAAATGGAAAGTA [XGTACX_site2743] | 7.35 |
| TAATAAAACATATATACACACATTATGTATACATAT [CACACA_site1703] | 6.63 |
| AAATGTTGAAATGATACACACATATAAATATAAATA [CACACA_site7229] | 6.47 |
| CCCTGAGCACTTTCGTGTACTAATAGTAACAATAAT [XGTACX_site1418] | 7.38 |
| AATAATAAACACAATCAAATAAAATATGAAATATAA [GTGCAC_negctrl_site307] | 6.16 |
| AAACAAATGTATATGTGTACTTATTTTTTTGTATGT [XGTACX_site7134] | 6.17 |
| TATATATATTTAAAAAGTACAAAAAAAAAAAATGAA [XGTACX_site374] | 6.52 |
| ATCAGTCGAGATGACAGTACACAGTAGCCAGGAAAT [XGTACX_site4932] | 6.69 |
| TATGTAGATAAATAAGCACACACCAAACATATAAAA [CACACA_site1182] | 7.25 |
| AAAACATTATTCCATACACACCATACTTTTTAATAA [CACACA_site7326] | 6.58 |
| TAAAATATTATCTACGCACACATTAAAATAAAAAAA [CACACA_site3709] | 6.67 |
| CATTTGCACACGCACACACACATAAAAAGAAAAATA [CACACA_site6297] | 10.8 |
| ATAAAGAAAAGGAACACACAAATATGTAAATATGTA [CACACA_site6356] | 6.43 |
| TTACACATAAATACCATATAAATATAATGCATATCT [CACACA_negctrl_site1731] | 6.36 |
| AAGGAGCCTATGAACACACACATGTACCTATATTAA [CACACA_site7838] | 6.55 |
| ATACGTATTTATTTCACACACGTTAAAAAAATAAAA [CACACA_site6027] | 6.21 |
| AGAATGAAATAATATACACACAAAGGAAAAATGTAA [CACACA_site3911] | 7.09 |
| TCTTGACTAAATATATGTACATATATTTTAATAATA [XGTACX_site701] | 6.5 |
| TAAGTGCTTTTCAACTGTACCTTCCATTTATTTATT [XGTACX_site8589] | 6.39 |
| ACTACATAATATTTACGTACCTAAAAAATTCTTATA [XGTACX_site509] | 6.5 |
| AAAAAAAAAAAAAATACACACGTGAATGTATTGTTT [CACACA_site4856] | 6.51 |
| TTCTTATTTTATATTTCACACATTTTTACTATACTT [CACACA_site5817] | 7.22 |

| Sequence | gcPBM binding intensity (ln) |
| --- | --- |
| GTATTCAAAAGTGAAACATGCAATAATATATATATA [TGCATGCA_site617] | 8.5 |
| AATATAATAATAAAAACACACACGTTGATTGTATTA [CACACA_site2381] | 6.21 |
| TAAAAATTCAATTGCACACGCACATATTTTAATAAG [CACACA_site2014] | 9.34 |
| AAAAAATAGACATATACACACATATGTATTTATAAT [CACACA_site5225] | 6.36 |
| CGTATGCAAGGAACCACACACACACCCATAAATGTA [CACACA_site749] | 6.71 |
| TTTTTTTTTATAAGGTGTACGTAAAATGTGTAGGTC [XGTACX_site3585] | 7.48 |
| TTAAAAATAAAAAATACACACTCTAGTCCATGTAAC [CACACA_site3640] | 6.26 |
| CCTATAATAAATAATACACACATATTGTAAATATAT [CACACA_site7496] | 6.54 |
| ATGTCATTATATACATGTACGCATATCTGTTTATCC [XGTACX_site3947] | 7.02 |
| ATTTCATATAGTGTAGTGCAATTTTAAGCATCAAGG | 9.39 |
| AGTACAGACATAGACACACACACACCCATAAAAAAA [CACACA_site1515] | 6.68 |
| TGTACATAAATCTAATTATTATATGTGTATATATAT [CACACA_negctrl_site1582] | 7.22 |
| TTAAGATAGCAAATATGTACACATTTGTAAAATAAA [XGTACX_site4837] | 6.71 |
| TCATGTTTTACAAAAACACACAAATGAATATAAACC [CACACA_site1161] | 6.89 |
| TCACATATTATCTTTACACACTATATATAAGTTTTA [CACACA_site2790] | 6.8 |
| AAGTGTATATAAAAATGTACATATTTCGATTTAAAT [XGTACX_site4161] | 6.69 |
| TAATAAATATATAATTGTACTTAAAAGAATATAAAA [XGTACX_site2928] | 6.2 |
| AATATATACCAACATAAATATATATATATATATATA [TGCATGCA_negctrl_site334] | 9.13 |
| TTACACATATTATATATATATAAAAAAAAAAAATAT [CACACA_negctrl_site1684] | 6.82 |
| ACCAATAATATACATACACACATAAAGGTTTATATA [CACACA_site315] | 6.66 |
| AAAAATCGATACAAGCGTACAAAATAAAATAAAAAT [XGTACX_site5546] | 6.94 |
| AGTTCGAATATATAAAGTACATAATTATATATTTGC [XGTACX_site2604] | 6.15 |
